In PubChem BioAssay AID588342 (National Center for Advancing Translational Sciences (NCATS), 2011):
Screen size: about 360,000 compounds; about 25,000 (6.9%) were called active. Inconclusive results, whose numbers are uncertain, are shown with a selection of clear calls. Calls come from the whole dose curve; as a rule, active = well fitted inhibition curve with a large enough effect; inconclusive = small, poorly fitted or top-dose-only effect; inactive = flat fitted curve, though single readings scatter. Where the call is inconclusive, the potency comes from a doubtful curve fit.

Target: Luciferin 4-monooxygenase (Photinus pyralis) (UniProt P08659)
Assay: qHTS profiling assay for firefly luciferase inhibitor/activator using purifed enzyme and Km concentrations of substrates (counterscreen for miR-21 project); note: nearly all actives have a fitted effect of over 55% in size
Details: purified FLuc, luminescence inhibition; series mostly up to 57.5 µM
Procedure, shortened: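 Biochemical qHTS of compounds, final roughly 60 µM downward over six points, against 10 nM purified firefly luciferase using Km concentrations of substrates (10 uM D-luciferin, 10 uM ATP) in Tris acetate pH 7.5 buffer; luminescence output.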
Potency is the fitted concentration of half-maximal effect; tags give direction and shape of the fitted curve.

UniProt P08659, sequence (P08659 whole entry, looked up): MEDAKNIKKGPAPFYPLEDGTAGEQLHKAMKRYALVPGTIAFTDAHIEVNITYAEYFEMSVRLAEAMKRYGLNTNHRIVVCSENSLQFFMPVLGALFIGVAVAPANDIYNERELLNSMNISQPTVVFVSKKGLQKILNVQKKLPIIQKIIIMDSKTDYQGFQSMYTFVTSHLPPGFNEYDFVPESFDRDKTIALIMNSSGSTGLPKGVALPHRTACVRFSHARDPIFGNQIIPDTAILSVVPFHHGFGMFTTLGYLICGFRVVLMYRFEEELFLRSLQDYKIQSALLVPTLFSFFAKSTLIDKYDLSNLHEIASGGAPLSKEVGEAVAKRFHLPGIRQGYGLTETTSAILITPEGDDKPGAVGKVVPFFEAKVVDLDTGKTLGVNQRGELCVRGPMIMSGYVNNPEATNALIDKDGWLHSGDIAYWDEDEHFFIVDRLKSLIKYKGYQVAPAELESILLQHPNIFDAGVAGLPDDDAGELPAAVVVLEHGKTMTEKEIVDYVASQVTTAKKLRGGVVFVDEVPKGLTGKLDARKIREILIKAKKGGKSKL

| Compound | Potency |
| --- | --- |
| Cc1nc(N)ncc1-c1ccc2c(c1)OCO2 | inconclusive: 42.6 µM [inhibitor, partial curve, poor fit] |
| COc1ccc(/C=C2\N=C(C(C)(C)C)OC2=O)c(OC)c1 | inconclusive: 7.57 µM [inhibitor, partial curve, poor fit] |
| Cc1cc(S(=O)(=O)Nc2cccc(C(=O)O)c2)c(C)c(S(=O)(=O)c2ccccc2)c1 | inconclusive: 23.9 µM [inhibitor, partial curve] |
| Cc1cnc(C(=O)NCc2ccc(Cl)cc2Cl)cn1 | inactive |
| CCOC(=O)c1sc2ccccc2c1S(=O)(=O)Nc1ccc(N(C)C)cc1 | inconclusive: 37.9 µM [inhibitor, partial curve, poor fit] |
| O=C(N/N=C/c1ccc(Cl)cc1)Nc1ccccc1 | active: 4.26 µM |
| C=CS(=O)(=O)c1sc(Cl)c(N2CCOCC2)c1[N+](=O)[O-] | inconclusive: 37.9 µM [inhibitor, partial curve, poor fit] |
| O=C(N/N=C/c1ccc(O)cc1)c1csc2ccccc12 | active: 15.1 µM |
| CSc1cccc(NC(=O)CSc2nc3ccccc3o2)c1 | inconclusive: 30.1 µM [inhibitor, partial curve, poor fit] |
| CCN(CC)S(=O)(=O)c1ccc(Cl)c(NC(=O)COC(=O)c2ccc(O)cc2)c1 | inconclusive: 23.9 µM [inhibitor, partial curve, poor fit] |
| N#Cc1ccc(/C=C/C(=O)c2ccco2)cc1 | inconclusive: 13.5 µM [inhibitor, partial curve, poor fit] |
| COc1ccccc1CCNC(=O)c1ccc2c(c1)c(C)c(C)n2C | inconclusive: 21.3 µM [inhibitor, partial curve, poor fit] |
| O=C(OCC(=O)N1CCCCCC1)c1n[nH]c(=O)c2ccccc12 | inconclusive: 23.9 µM [inhibitor, partial curve, poor fit] |
| COC(=O)c1ccc(NC(=O)CC2C(=O)N(c3ccc(Cl)cc3)C(=O)N2Cc2cccs2)cc1 (stereo unspecified) | inconclusive: 23.9 µM [inhibitor, partial curve, poor fit] |
| O=C(Cc1c(F)cccc1Cl)N1CCN(S(=O)(=O)c2cccs2)CC1 | inactive |
| CC(=O)Oc1ccc2nc(/C=C/c3ccc(C=O)cc3)oc(=O)c2c1 | inconclusive: 5.36 µM [inhibitor, full curve] |
| COc1ccc(Nc2nc(Cl)c(C=O)s2)cc1 | inconclusive: 19 µM [inhibitor, partial curve, poor fit] |
| Cn1c(=O)c2c(n3c4ccccc4nc13)NC(=O)CC2c1ccccc1F (stereo unspecified) | inconclusive: 37.9 µM [inhibitor, partial curve, poor fit] |
| O=C(NCc1ccccc1)c1cc(-c2cccc(Cl)c2)on1 | inactive |
| Cc1noc(NS(=O)(=O)c2ccc(N/C=C/C(=O)c3ccccc3)cc2)c1C | inconclusive: 37.9 µM [inhibitor, single point] |
| COc1ccc(NC(=O)Cc2c(C(=O)O)n(C)c3ccccc23)cc1OC | inconclusive: 37.9 µM [inhibitor, partial curve, poor fit] |
| Cc1ccc(Cn2c(=O)n(CCCCC(=O)NCCc3ccc(Cl)cc3)c(=O)c3ccccc32)cc1 | inactive |

| Compound | Potency |
| --- | --- |
| O=C(CN1CCCCCCC1)Nc1ccc(Cl)cc1Cl | inconclusive: 21.3 µM [inhibitor, partial curve, poor fit] |
| COc1cc(C(=O)NCC2CCCO2)ccc1OCc1ccccc1Cl (stereo unspecified) | inactive |
| Cc1cccc(NC(=O)CSc2ccc(-c3cccs3)nn2)c1C | inconclusive: 10.7 µM [inhibitor, partial curve, poor fit] |
| CC(C)(C)NC(=O)c1cccc(NC(=O)c2ccc3c(c2)C(=O)N(C(C)(C)C)C3=O)c1 | active: 10.7 µM |
| COc1ccc(/C=C/c2nnc(NC(=O)CSc3ccc(C)cc3)s2)cc1 | inconclusive: 9.53 µM [inhibitor, partial curve, poor fit] |
| CC(=O)Nc1ccc(Sc2ccccc2C(=O)O)cc1 | inconclusive: 30.1 µM [inhibitor, single point] |
| COc1ccc(NC(=O)CN(C)C(=O)c2ccc(-c3cccc(C(F)(F)F)c3)o2)cc1 | inconclusive: 26.9 µM [inhibitor, partial curve, poor fit] |
| Cc1ccccc1OCCCC(=O)Nc1ccc2c(c1)OCO2 | inconclusive: 21.3 µM [inhibitor, partial curve, poor fit] |
| CCc1nnc(NS(=O)(=O)c2ccc(NC(=O)c3ccccc3OC)cc2)s1 | inactive |
| Nc1nc(Cl)nc2ccc(Br)cc12 | inconclusive: 19 µM [inhibitor, partial curve] |
| CCOC(=O)C1(CCCc2ccccc2)CCN(S(C)(=O)=O)CC1 | inactive |
| Cc1ccc(-c2nnc(Nc3ccc(C(N)=O)cc3)c3ccccc23)cc1S(=O)(=O)NCC1CCCO1 (stereo unspecified) | inconclusive: 26.9 µM [inhibitor, single point] |
| CCOC(=O)c1ccc(NC(=O)Nc2ccn(C)n2)cc1 | inconclusive: 19 µM [inhibitor, partial curve] |
| CCNC(=O)/C(C#N)=C/c1c(N2CCOCC2)nc2ccccn2c1=O | inactive |
| O=C(CNCc1cccc2ccccc12)Nc1ccccc1[N+](=O)[O-] | inconclusive: 37.9 µM [inhibitor, partial curve, poor fit] |
| Cc1cc(C(=O)CSc2nnnn2-c2ccc(Cl)cc2)c(C)n1CC1CCCO1 (stereo unspecified) | inactive |
| N/C(=N\OC(=O)/C=C/c1ccccc1)c1ccncc1 | active: 6.01 µM |
| Cc1cccc(C(=O)Nc2nnc(-c3cccnc3)o2)c1 | inconclusive: 26.9 µM [inhibitor, partial curve, poor fit] |
| COc1ccc(C)cc1NC(=O)NNC(=O)c1cc2ccccc2cc1O | inconclusive: 26.9 µM [inhibitor, partial curve, poor fit] |
| O=C(CN1C(=O)S/C(=C\C=C\c2ccccc2)C1=O)N1CCOCC1 | active: 4.78 µM |
| O=C(O)CNC(=O)/C=C/c1ccc(Cl)cc1Cl | active: 23.9 µM |
| CC(OC(=O)c1ccccn1)C(=O)Nc1ccc2c(c1)OCCO2 (stereo unspecified) | inconclusive: 33.8 µM [inhibitor, single point] |

| Compound | Potency |
| --- | --- |
| CC(C)(C)C(=O)Oc1cccc(Nc2ncnc3ccccc23)c1 | inconclusive: 23.9 µM [inhibitor, single point] |
| COc1ccc(-n2nc(C(=O)NCC(=O)NC3CCCCC3)c3ccccc3c2=O)c(OC)c1 | inconclusive: 30.1 µM [inhibitor, partial curve, poor fit] |
| O=C(O)Cc1sc(Nc2ccccc2)nc1-c1ccc(Cl)cc1 | inconclusive: 37.9 µM [inhibitor, partial curve, poor fit] |
| CCOc1ccc2nc(COC(=O)c3ccncc3)c(C(=O)c3ccccc3)[n+]([O-])c2c1 | inconclusive: 21.3 µM [inhibitor, partial curve] |
| CN(C)c1ccc(/C=C(\NC(=O)c2ccccc2)C(=O)N/N=C/c2ccc(C(=O)O)cc2)cc1 | inconclusive: 37.9 µM [inhibitor, partial curve, poor fit] |
| Nc1c(-c2ccccc2Cl)cnn1-c1cccc([N+](=O)[O-])c1 | inconclusive: 30.1 µM [inhibitor, single point] |
| CC(C)N1CC(O)=C(c2nc3ccccc3[nH]2)C1=N | active: 19 µM |
| Cc1c(C#N)c(O)[nH]c(=O)c1N=Nc1ccc(S(N)(=O)=O)cc1 | inconclusive: 21.3 µM [inhibitor, single point] |
| COc1cc(C)ccc1OCCON1C(=O)CCC1=O | inconclusive: 21.3 µM [inhibitor, single point] |
| Cc1cccc(C(=O)Nc2cccc(NC(=O)c3ccccc3)c2)c1 | active: 16.9 µM |
| c1ccc2[nH]c(SN3CCOCC3)nc2c1 | inconclusive: 15.1 µM [inhibitor, partial curve] |
| Cc1ccc(-n2cc(-c3ccccc3)c3c(N4CCCCC4)ncnc32)cc1 | inactive |
| CC(C)[C@@H](NC(=O)C1CCC(CNC(=O)[C@H](Cc2ccccc2)NC(=O)OC(C)(C)C)CC1)C(=O)O (stereo partly specified) | inactive |
| CC(=O)c1cc(C(=O)Nc2ccccc2C(=O)O)oc1C | inconclusive: 26.9 µM [inhibitor, partial curve] |
| O=C(c1ccncc1)c1ccc(NC(=O)c2cccs2)cc1 | inconclusive: 23.9 µM [inhibitor, partial curve, poor fit] |
| Cc1nc(Nc2cnc(/C=C/c3cc(C(=O)Nc4cccc(C(F)(F)F)c4)ccc3C)cn2)cc(N2CCNCC2)n1 | inconclusive: 30.1 µM [inhibitor, partial curve, poor fit] |
| COc1ccccc1CNC(=O)c1c[nH]c2ccc(S(=O)(=O)Nc3cc(C)cc(C)c3)cc2c1=O | inconclusive: 12 µM [inhibitor, partial curve, poor fit] |
| O=C(CN1CCN(C(c2ccccc2)c2ccccc2)CC1)Nc1ccc(N2CCOCC2)cc1 | inactive |
| Cc1ccc(-c2nc3c(=O)n(C)c4ccccc4c3o2)cc1 | inconclusive: 2.39 µM [inhibitor, full curve] |
| CCC(C)(C)NC(=O)/C=C/c1cnc2ccccc2n1 | active: 10.7 µM |
| C=CCNC(=O)/C(C#N)=C/c1c(C)nn(-c2ccccc2)c1Cl | inconclusive: 26.9 µM [inhibitor, partial curve, poor fit] |
| Cc1ccc(Nc2ncccc2C(N)=O)cc1 | inconclusive: 16.9 µM [inhibitor, partial curve, poor fit] |
